Experimental data: the RNAGym collection of RNA variant scans (doi:10.1093/nar/gkz1192)
Read counts are not given, so values of variants with three or more changes are uncertain.

B1: CPEB3 Ribozyme (parent)
chain: UAACAGGGGGCCACAGCAGAAGCGUUCACGUCGCAGCCCCUGUCAGAUUCUGGUGAAUCUGCGAAUUCUGCUGUAUAUCUC

Variants of: B1
Test: self-cleavage, relative activity (ratio to wild type); higher = more cleavage; in vitro, sequencing
Outline: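 Relative activity compares each variant's cleaved/total read fraction with that of the unmutated ribozyme. To get these fractions, barcoded CPEB3 ribozyme libraries from rounds of error-prone PCR were transcribed with T7 RNA polymerase for 5 hours at 37°C and then given 15 min of DNase I treatment before EDTA was added. The RNAs were reverse transcribed with template switching and sequenced on Illumina, and DNA sequencing linked barcodes to variants. A minimum of 5 reads applied, and three batches were averaged.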

Which self-cleavage does the source give for UAACAGGGGGCCGCAGCAGAAGCGUGCCCGUCGCAGCCCCUGUCAGACUCUGGUGAAUCUGCGAAUUCUGCUGUAUAUCUC [A13G U26G A28C U48C] here?
The self-cleavage was 0.12.

Which self-cleavage does the source give for UAACAGGGGGCCGCAGCAGAAGCGUGCACGUCGCAGCCCCUGUCAGAUUCUGGUGAAUCUGCGAAUUCUGCGGUAUAUCUC [A13G U26G U72G] here?
Its self-cleavage is 0.2.

Which self-cleavage does the source give for UAACAGGGGGCCGCAGCAGAAGCGUGCACGUCGCAGCCCCUGUCAGAUUCUGGUGAAUCUGCGAAUUCUGCUGUAUACCUC [A13G U26G U78C] here?
Its self-cleavage is 0.18.

For UAACAGGGGGCCGCAGCAGAAGCGUUCACGACGCGGCCCCUGUCAGAUUCUGGUGAAUCUGCGAAUUCUGCUGUAUAUCUC [A13G U31A A35G], which self-cleavage is on record?
Its self-cleavage is 0.95.

For UAACAGGGGGCCGCAGCAGAAGCGUUCACGACGCGGCCCCUGUCAGAUUCUGGUGAAUCUGCGAAUUCUGCUGUUUAUCUC [A13G U31A A35G A75U], which self-cleavage is on record?
The self-cleavage was 0.8.

For UAACAGGGGGCCGCAGCAGAAGCGUUCACGACGCAGCCCCUGUCUGAUUCUGGCGAAUCUGCGAAUUCUGCUGUAUAACUC [A13G U31A A45U U54C U78A], which self-cleavage is on record?
Its self-cleavage is 0.12.

With UAACAGGGGGCCGCAGCAGAAGCGUUCACGACGCAGCCUCUGUCAGAUUCAGGGGAAUCUGCGAAUCCUGCUGUAUAUCUC [A13G U31A C39U U51A U54G U67C] as the variant, how does the self-cleavage read?
Its self-cleavage is 0.07.

For UAACAGGGGGCCGCAGCAGAAGCGUUCACGACGCAGCCCCAGUCAGAUUCCGGUGAGUCUGCGAAUUCUGCUGUUUAACUC [A13G U31A U41A U51C A57G A75U U78A], which self-cleavage is on record?
The self-cleavage was 0.02.

With UAACAGGGGGCCGCAGCAGAAGCGUUCACGACGCAGCCCCCGUCAGAUUCUGGUGAAUCUGCGAAUUCUGCUGUAUAUCUC [A13G U31A U41C] as the variant, how does the self-cleavage read?
The self-cleavage was 0.25.

Which self-cleavage does the source give for UAACAGGGGGCCGCAGCAGAAGCGUUCACGACGCAGCCCCUGCCAGAUUCUGGUGAAUCUGCGAGUUCUGCUGUAUAUCUC [A13G U31A U43C A65G] here?
Its self-cleavage is 0.16.

Which self-cleavage does the source give for UAACAGGGGGCCGCAGCAGAAGCGUUCACGACGCAGCCCCUGCCAGAUUCUGGUGAAUCCGCGAAUUCUGCUGUAUAUCUC [A13G U31A U43C U60C] here?
Its self-cleavage is 0.13.

Which self-cleavage does the source give for UAACAGGGGGCCGCAGCAGAAGCGUUCACGACGCAGCCCCUGUCAGAUUCUGGUGAACCCGCGAAUUCUGCUGUAUAUCGC [A13G U31A U58C U60C U80G] here?
The self-cleavage was 0.08.

With UAACAGGGGGCCGCAGCAGAAGCGUUCACGCCGCAGCCCCUGUCAGUUUCUGGUUAAUCUGCGAAUUCUGCUGUAUAUCCC [A13G U31C A47U G55U U80C] as the variant, how does the self-cleavage read?
Its self-cleavage is 0.31.

For UAACAGGGGGCCGCAGCAGAAGCGUUCACGCCGCAGCCCCUGUCAGAUUCUGGUGGGUCUGCGAAUUCUGCUGUAUAUCUC [A13G U31C A56G A57G], which self-cleavage is on record?
Its self-cleavage is 0.39.

Which self-cleavage does the source give for UAACAGGGGGCCGCAGCAGAAGCGUUCACGCCGUAGCCCCUGACAGAUUCUGGUGAAUCUGCGAAUUCUGCUGUAUAUCUC [A13G U31C C34U U43A] here?
The self-cleavage was 0.61.

With UAACAGGGGGCCGCAGCAGAAGCGUUCACGCCGCAGCCUCUGUCAGAUUCUGGUGAAUCUGCGAAUUCCGCUGUAUAUCUC [A13G U31C C39U U69C] as the variant, how does the self-cleavage read?
Its self-cleavage is 0.5.

With UAACAGGGGGCCGCAGCAGAAGCGUUCACGCCGCAGCCCCUGUCAGAUUCUGGUGAAUCUGCGAAUUCUGCUGUAUAUGUC [A13G U31C C79G] as the variant, how does the self-cleavage read?
Its self-cleavage is 0.88.

With UAACAGGGGGCCGCAGCAGAAGCGUUCACGCCGCAGCCCCCGUCAGAUUCUGGUGAAUCUGCGAAUUCUGCUGUAUAUCUC [A13G U31C U41C] as the variant, how does the self-cleavage read?
Its self-cleavage is 0.44.

Which self-cleavage does the source give for UAACAGGGGGCCGCAGCAGAAGCGUUCACGCCGCAGCCCCUGUCAGAUCCUGGUGAAUCUGCGAAUUCUGCUGUAGAUCUC [A13G U31C U49C U76G] here?
Its self-cleavage is 0.05.

For UAACAGGGGGCCGCAGCAGAAGCGUUCACGCCGCAGCCCCUGUCAGAUUCUGGUGAAUCUGCGAAUCCUGCUGUAUAUCUC [A13G U31C U67C], which self-cleavage is on record?
Its self-cleavage is 0.11.

For UAACAGGGGGCCGCAGCAGAAGCGUUCACGGCGCAGCCCCUGUCAGAUUAUGGUGAGUCUGCGAAUUCUGCUGUAUAUCUC [A13G U31G C50A A57G], which self-cleavage is on record?
Its self-cleavage is 0.12.

Which self-cleavage does the source give for UAACAGGGGGCCGCAGCAGAAGCGUUCACGGCGCAGCCCCUGUCAGAUUCUGGUCAAUCUGCGAAUUCUGCUGUAUAUCUC [A13G U31G G55C] here?
Its self-cleavage is 0.41.

For UAACAGGGGGCCGCAGCAGAAGCGUUCACGUCGCAGCCCCAGUCAGAUUCUGGUGUAUCUGCGAAUUCUGCUGUAUAUCUC [A13G U41A A56U], which self-cleavage is on record?
The self-cleavage was 0.12.

For UAACAGGGGGCCGCAGCAGAAGCGUUCACGUCGCAGCCCCAGUCAGAUUAUGGUGGAUCUGCGAAUUCUGCUGUAUAUCUC [A13G U41A C50A A56G], which self-cleavage is on record?
The self-cleavage was 0.34.

Which self-cleavage does the source give for UAACAGGGGGCCGCAGCAGAAGCGUUCACGUCGCAGCCCCAGUCAGAUUCUUGUGAAUCUGCGAAUUCUGCUGUAUACCUC [A13G U41A G52U U78C] here?
The self-cleavage was 0.21.

With UAACAGGGGGCCGCAGCAGAAGCGUUCACGUCGCAGCCCCAGACAGAUUCUGGUGAAUCUGCGAAUUCUGCUGUAUAUCUC [A13G U41A U43A] as the variant, how does the self-cleavage read?
Its self-cleavage is 0.26.

With UAACAGGGGGCCGCAGCAGAAGCGUUCACGUCGCAGCCCCAGGCAGACUCUGGUGAAUCUGCAAAUUCUGCUGUAUAUCUC [A13G U41A U43G U48C G63A] as the variant, how does the self-cleavage read?
Its self-cleavage is 0.1.

With UAACAGGGGGCCGCAGCAGAAGCGUUCACGUCGCAGCCCCAGUCAGAUUCCGGUGAAUCUGCGAAUUCUGCUGUAUACCUC [A13G U41A U51C U78C] as the variant, how does the self-cleavage read?
The self-cleavage was 0.13.

With UAACAGGGGGCCGCAGCAGAAGCGUUCACGUCGCAGCCCCAGUCAGAUUCUGGUGAACCUGCGGAUUCUGCUGUAUAUCUC [A13G U41A U58C A64G] as the variant, how does the self-cleavage read?
The self-cleavage was 0.06.

For UAACAGGGGGCCGCAGCAGAAGCGUUCACGUCGCAGCCCCAGUCAGAUUCUGGUGAAUCCGCGAAUUCUGCAGUAUAUCUC [A13G U41A U60C U72A], which self-cleavage is on record?
The self-cleavage was 0.31.

For UAACAGGGGGCCGCAGCAGAAGCGUUCACGUCGCAGCCCCAGUCAGAUUCUGGUGAAUCUGCGAAGUCUGCUGUAUAUCUC [A13G U41A U66G], which self-cleavage is on record?
Its self-cleavage is 0.27.

Which self-cleavage does the source give for UAACAGGGGGCCGCAGCAGAAGCGUUCACGUCGCAGCCCCCGUCGGAUCCUGGUGAAUCUGCGAAUUCUGCUGUAUAUCUC [A13G U41C A45G U49C] here?
Its self-cleavage is 0.22.

Which self-cleavage does the source give for UAACAGGGGGCCGCAGCAGAAGCGUUCACGUCGCAGCCCCCGUCUGAUUCUGGUGGAUCUGCGAACUCCGCUGUAUAUAUC [A13G U41C A45U A56G U66C U69C C79A] here?
Its self-cleavage is 0.19.

With UAACAGGGGGCCGCAGCAGAAGCGUUCACGUCGCAGCCCCCGUCAGAUUCUGGUGAAUCUGCGAGUUCUGCUGUAUAUCUC [A13G U41C A65G] as the variant, how does the self-cleavage read?
Its self-cleavage is 0.22.
